Test [1] concerns influenza virus A/Puerto Rico/8/1934 (H1N1). Type of test: in vivo, BALB/c mice. The settings on record: for survival rate: 10 mg/kg oral twice daily for 5 days from day 3 p.i.; for body weight / protection against the lethal infection / recovery of body weight: mouse, in vivo.
The test system is the same in test [2].
Where [3] appears, read: 125 TCID50 PR8, 15 mg/kg oral twice daily for 5 days from day 3 p.i.
Where [4] appears, read: 125 TCID50 PR8, 7.5 mg/kg oral twice daily for 5 days from day 3 p.i.
The mark [5] stands for this setting: 500 TCID50 PR8, 20 mg/kg oral twice daily for 5 days from day 3 p.i., 14 days.

Counter-ions that a name gives are not always drawn. Like-named read-outs stand apart in the source and are kept apart here.

The compound `N#CC[C@H](C1CCCC1)n1cc(-c2ncnc3[nH]ccc23)cn1` [Ruxolitinib] registered an infected mice protected in test [1] (setting [3]) of 50%. The survival rate in test [1] (500 TCID50 PR8, 14 days) was 60%. Besides, the body weight entry in test [1] was “gradually regained body weight”.
Consider `Cc1cc(Nc2nc(N[C@@H](C)c3ccc(F)cc3)c(C#N)cc2F)[nH]n1` [AZ 960], for which the “protection against the lethal infection” value in test [1] is recorded as “did not protect”.
In the case of `CCS(=O)(=O)N1CC(CC#N)(n2cc(-c3ncnc4[nH]ccc34)cn2)C1` [Baricitinib], the infected mice protected in test [1] (setting [4]) was 70%.
For the compound `NC(=O)c1cnc2[nH]ccc2c1N[C@@H]1[C@@H]2CC3C[C@H]1C[C@@](O)(C3)C2` [Peficitinib], the infected mice protected in test [1] (setting [4]) and in test [1] (setting [3]) was 50% in each case. In test [1] (500 TCID50 PR8, 14 days), the survival rate was determined as 40%. Besides, in test [1], the body weight entry is reported as “gradually regained body weight”.
For `Cc1cc(Nc2cc(CN3CCOCC3)c3nc(C)c(Cc4ccc(Cl)cc4F)n3n2)n[nH]1` [Gandotinib], the “protection against the lethal infection” value in test [1] was “did not protect”.
Regarding `CNS(=O)(=O)C[C@H]1CC[C@H](N(C)c2ncnc3[nH]ccc23)CC1` [Oclacitinib maleate], the clinical score entry in test [2] (300 TCID50, 20 mg/kg/d, day 9 p.i.) is on record as “lowest among all the groups”. In test [2] (300 TCID50, 40, 20 and 10 mg/kg/d, after day 9 p.i.), the body weight entry is “started to gain body weight”. The “survival (infected mice protected)” value in test [2] (300 TCID50 PR8, 10 mg/kg/d intraperitoneal, from day 3 p.i. for 5 days, 21 days) was 50%. Also, the survival rate in test [2] (300 TCID50 PR8, 40 mg/kg/d intraperitoneal, from day 3 p.i. for 5 days, 21 days) came out at 20%. Besides, the survival result in test [2] (mouse, in vivo) was “Seventy”. Further, the infected mice protected in test [1] (setting [5]) was 40%. For the same compound, the “infected mice protected until day 13” value in test [1] (500 TCID50 PR8, 20 mg/kg oral, until day 13) is recorded as 60%.
On to `N#CC[C@@H](C1CCCC1)n1cc(-c2ncnc3[nH]ccc23)cn1` [S-Ruxolitinib], for which the infected mice protected in test [1] (setting [3]) and in test [1] (setting [5]) was 40% in each case. In addition, in test [1], the “recovery of body weight” value was “recovered earlier and more efficiently”.
The compound `C[C@@H]1CCN(C(=O)CC#N)C[C@@H]1N(C)c1ncnc2[nH]ccc12` [Tofacitinib] gave an infected mice protected in test [1] (125 TCID50 PR8, 7.5 mg/kg oral twice daily for 5 days from day 3 p.i., listed as tofacitinib) of 50%. Also, the “recovery of body weight” value in test [1] was “started earlier”.
In the case of `Cc1cc(Nc2nc(N[C@@H](C)c3ncc(F)cn3)ncc2Cl)n[nH]1` [AZD1480], the “protection against the lethal infection” value in test [1] is recorded as “did not protect”.
`C[C@@H]1CCN(C(=O)CC#N)C[C@@H]1N(C)c1ncnc2[nH]ccc12` [Tofacitinib citrate] showed an infected mice protected in test [1] (125 TCID50 PR8, 7.5 mg/kg oral twice daily for 5 days from day 3 p.i., listed as tofacitinib-citrate) of 40%.

Source of the values: paper PMC10989010, “A panel of janus kinase inhibitors identified with anti-inflammatory effects protect mice from lethal influenza virus infection” (Antimicrobial Agents and Chemotherapy, 2024).
